# Experimental data reported in PubChem BioAssay AID504333 (National Center for Advancing Translational Sciences (NCATS), 2011).
# Among all 360,000 compounds or so, about 16,000 (4.4%) were called active. The inconclusive results got no clear call from the source; some entries with a clear call stand among them for comparison. Calls come from the whole dose curve; as a rule, active = well fitted inhibition curve with a large enough effect; inconclusive = small, poorly fitted or top-dose-only effect; inactive = no such curve, though single readings can be large or run the other way. A potency beside an inconclusive call is a rough fit, not a confirmed value.
# Target: Bromodomain adjacent to zinc finger domain protein 2B (Homo sapiens) (UniProt Q9UIF8)
# Experiment: qHTS Assay for Inhibitors of BAZ2B; note: nearly all actives have a fitted effect of over 60% in size
# Conditions: AlphaScreen BAZ2B-H3K14Ac peptide displacement; series mostly up to 114 µM
# How it was run: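 Inhibition is scored as reduced AlphaScreen emission. The BAZ2B/b-H3(5-23)K14Ac complex (50 nM each) in PBS pH 7.4, 0.01% Tween-20 meets compound (up to 110 uM) for 30 min at RT before bead addition.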
# Potency is the fitted concentration of half-maximal effect; tags give direction and shape of the fitted curve.
# Chain of UniProt Q9UIF8 (Q9UIF8 whole entry, looked up, the tested form may be a part): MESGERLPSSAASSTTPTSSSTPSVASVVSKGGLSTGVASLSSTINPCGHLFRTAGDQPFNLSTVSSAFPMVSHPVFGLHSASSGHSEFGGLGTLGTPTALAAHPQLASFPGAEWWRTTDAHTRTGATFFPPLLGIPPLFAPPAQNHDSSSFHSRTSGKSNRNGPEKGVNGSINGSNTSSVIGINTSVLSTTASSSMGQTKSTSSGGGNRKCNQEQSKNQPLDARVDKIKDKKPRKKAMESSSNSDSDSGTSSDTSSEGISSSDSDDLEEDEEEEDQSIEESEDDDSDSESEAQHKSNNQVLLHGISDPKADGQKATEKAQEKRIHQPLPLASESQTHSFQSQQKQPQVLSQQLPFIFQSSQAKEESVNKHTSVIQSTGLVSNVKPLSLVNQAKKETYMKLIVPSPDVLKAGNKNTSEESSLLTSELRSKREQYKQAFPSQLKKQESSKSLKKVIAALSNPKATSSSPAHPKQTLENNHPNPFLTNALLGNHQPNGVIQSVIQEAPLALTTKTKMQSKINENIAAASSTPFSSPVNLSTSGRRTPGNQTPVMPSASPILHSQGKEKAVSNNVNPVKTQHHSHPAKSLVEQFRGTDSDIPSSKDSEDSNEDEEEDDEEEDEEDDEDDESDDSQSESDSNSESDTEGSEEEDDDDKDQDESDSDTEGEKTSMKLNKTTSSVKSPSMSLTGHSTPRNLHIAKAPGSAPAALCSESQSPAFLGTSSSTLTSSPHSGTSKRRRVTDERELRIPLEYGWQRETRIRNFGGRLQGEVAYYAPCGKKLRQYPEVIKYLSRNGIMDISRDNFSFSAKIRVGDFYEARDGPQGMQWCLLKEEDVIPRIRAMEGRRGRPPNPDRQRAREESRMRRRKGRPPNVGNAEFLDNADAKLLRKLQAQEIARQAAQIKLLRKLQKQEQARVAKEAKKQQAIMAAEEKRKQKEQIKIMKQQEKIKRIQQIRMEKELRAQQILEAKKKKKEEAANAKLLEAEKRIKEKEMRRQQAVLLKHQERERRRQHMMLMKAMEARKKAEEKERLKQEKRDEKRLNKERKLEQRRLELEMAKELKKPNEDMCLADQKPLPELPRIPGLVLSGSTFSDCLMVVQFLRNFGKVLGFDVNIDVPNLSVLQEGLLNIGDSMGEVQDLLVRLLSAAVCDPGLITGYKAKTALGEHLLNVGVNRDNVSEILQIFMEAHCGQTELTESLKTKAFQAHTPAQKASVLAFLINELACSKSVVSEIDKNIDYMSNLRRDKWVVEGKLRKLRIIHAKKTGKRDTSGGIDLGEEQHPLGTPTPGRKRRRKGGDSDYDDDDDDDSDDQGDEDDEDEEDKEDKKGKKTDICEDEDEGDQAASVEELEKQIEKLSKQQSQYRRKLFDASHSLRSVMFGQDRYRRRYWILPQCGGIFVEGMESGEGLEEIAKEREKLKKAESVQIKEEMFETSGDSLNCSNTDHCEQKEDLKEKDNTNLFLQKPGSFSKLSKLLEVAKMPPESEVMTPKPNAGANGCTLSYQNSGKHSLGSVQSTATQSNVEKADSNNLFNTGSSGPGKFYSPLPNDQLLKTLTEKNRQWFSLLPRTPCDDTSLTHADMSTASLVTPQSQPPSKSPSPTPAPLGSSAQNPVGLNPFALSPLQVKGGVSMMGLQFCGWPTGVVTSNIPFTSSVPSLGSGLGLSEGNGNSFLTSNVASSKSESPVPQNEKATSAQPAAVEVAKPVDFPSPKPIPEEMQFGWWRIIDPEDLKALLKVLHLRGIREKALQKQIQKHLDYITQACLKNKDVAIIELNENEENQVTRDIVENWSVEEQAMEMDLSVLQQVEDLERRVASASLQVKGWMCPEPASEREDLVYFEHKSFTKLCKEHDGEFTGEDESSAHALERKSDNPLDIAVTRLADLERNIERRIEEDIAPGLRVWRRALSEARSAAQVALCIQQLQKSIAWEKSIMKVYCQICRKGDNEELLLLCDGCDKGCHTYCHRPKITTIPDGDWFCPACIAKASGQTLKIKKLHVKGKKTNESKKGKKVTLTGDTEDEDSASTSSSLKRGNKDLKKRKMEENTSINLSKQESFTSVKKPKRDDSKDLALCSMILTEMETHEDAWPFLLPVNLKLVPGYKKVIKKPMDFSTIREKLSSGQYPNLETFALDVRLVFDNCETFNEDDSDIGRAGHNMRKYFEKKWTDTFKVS
row,SMILES,Potency
1,Cc1ccc(S(=O)(=O)N2CCN(CCOc3ccccc3)CC2)cc1,inactive
2,COc1ccccc1-c1oc2ccccc2c1-c1ccc2cc[nH]c2c1,"inconclusive: 89.1 µM [inhibitor, single point]"
3,CC1=C(C(=O)Nc2ccc(F)cc2)C(c2ccc(N(C)C)cc2)NC(=O)N1 (stereo unspecified),inactive
4,O=C(Cc1cccs1)Nc1ccc(S(=O)(=O)N2CCCC2)cc1,active: 50.1 µM
5,O=C(c1cccc(NS(=O)(=O)c2cccc(C(F)(F)F)c2)c1)N1CCOCC1,inactive
6,Cc1cccc(N2CCN(C(=O)C3CCCN(C(=O)c4cc5sccc5n4C)C3)CC2)c1C (stereo unspecified),"inconclusive: 28.2 µM [inhibitor, partial curve]"
7,O=C(COc1c(Cl)cccc1Cl)Nc1ccccc1N1CCCC1,"inconclusive: 35.5 µM [inhibitor, partial curve]"
8,O=C1C=CC(=O)C(C2=C3C(=O)N(CCc4ccccc4)CC(=O)N3CCC2)=C1,active: 50.1 µM
9,CC1(OC(=O)C2CCCC2)C(=O)C=C2C=C(c3ccsc3)N(CCc3ccccn3)C=C2C1=O (stereo unspecified),"inconclusive: 56.2 µM [inhibitor, partial curve, poor fit]"
10,COc1ccc(-c2nn(-c3ccccc3)cc2/C=C\C(=O)Nc2ccc(C(=O)O)cc2)cc1,"inconclusive: 56.2 µM [inhibitor, partial curve]"
11,Cc1nc2sc(C(c3ccco3)N3CCN(c4ccc(F)cc4)CC3)c(O)n2n1 (stereo unspecified),"inconclusive: 79.4 µM [inhibitor, single point]"
12,COc1ccccc1-n1c(-c2ccccc2)c[nH]c1=S,"inconclusive: 56.2 µM [inhibitor, partial curve, poor fit]"
13,O=C(NC1CCC(O)CC1)c1cc(-c2ccco2)nc2ccccc12 (stereo unspecified),active: 22.4 µM
14,O=C(C1CCC(CNS(=O)(=O)c2cccs2)CC1)N1CCN(c2ccc(Cl)cc2)CC1 (stereo unspecified),inactive
15,Cc1cc(N=Nc2c(O)c3ccccc3[nH]c2=O)ccc1N=Nc1ccc(C(=O)N(C)C)cc1,"inconclusive: 50.1 µM [inhibitor, partial curve]"
16,Cc1ccc(OCC(O)CN2CCOCC2)c(C)c1 (stereo unspecified),inactive
17,Cc1onc(-c2ccccc2)c1-c1nnc(CN2CCN(S(=O)(=O)c3ccccc3F)CC2)o1,inactive
18,Cc1ccccc1/C=C1\Sc2ccc(C(=O)N3CCN(c4ccccn4)CC3)cc2N(C)C1=O,"inconclusive: 50.1 µM [inhibitor, partial curve]"
19,CC(C)CCOP(=O)(c1ccc(N(C)C)cc1)C(O)c1ccc(N(C)C)cc1 (stereo unspecified),"inconclusive: 44.7 µM [inhibitor, partial curve]"
20,COCCCN1C(=O)c2[nH]nc(-c3ccccc3O)c2C1c1ccc(OC)cc1 (stereo unspecified),inactive
21,COc1ccc(NC(=O)CSc2nnc(-c3nonc3NC(C)=O)n2C)cc1Cl,inactive
22,C/C(=N\O)c1ccc2c3c([nH]c2c1)CCCC3,active: 39.8 µM
23,COc1cccc(CNC(=O)CCC2CCCN(C(=O)c3cccc4c(C)c(C)[nH]c34)C2)c1 (stereo unspecified),"inconclusive: 50.1 µM [inhibitor, partial curve]"
24,O=C(CN1CCCCCC1)Nc1ccc(Br)cn1,"inconclusive: 79.4 µM [inhibitor, single point]"

row,SMILES,Potency
1,O=c1cc2nc(-c3ccccc3F)nc(SCc3ccc(Br)cc3)n2[nH]1,active: 50.1 µM
2,COc1cccc(/C=C2\SC(=S)N(NS(=O)(=O)c3ccc(C)cc3)C2=O)c1OC,"inconclusive: 70.8 µM [inhibitor, partial curve]"
3,Cc1ccc(C(=O)c2cc([N+](=O)[O-])ccc2N2CCOCC2)c(C)c1,"inconclusive: 50.1 µM [inhibitor, partial curve]"
4,O=C(O)c1c2c(nc3ccc(S(=O)(=O)N4CCC(C(=O)NC5CCCCCC5)CC4)cc13)CCCC2,active: 50.1 µM
5,CNC(=O)OCc1cccc(COC(=O)NC)n1,"inconclusive: 89.1 µM [inhibitor, single point]"
6,O=C(Nc1nc(-c2ccco2)c(-c2ccco2)s1)c1cnccn1,"inconclusive: 89.1 µM [inhibitor, single point]"
7,Cc1ccc(OC(=O)c2ccc3c(=O)n4c(nc3c2)CCC4)cc1,"inconclusive: 89.1 µM [inhibitor, single point]"
8,CCCCC1OC23CCCCC2C(C#N)(C#N)C1(C#N)C(=N)O3 (stereo unspecified),"inconclusive: 89.1 µM [inhibitor, partial curve]"
9,COc1ccc(CNC(=O)C2CCN(c3nnc(C)c4c(C)n(-c5ccc(C)cc5)nc34)CC2)cc1,"inconclusive: 79.4 µM [inhibitor, single point]"
10,Cc1ccnc(NC(=O)c2ccc(COc3ccc(Cl)cc3)o2)c1,"inconclusive: 3.55 µM [inhibitor, full curve]"
11,Cc1ccc(C)c(Cn2nnc3c(=O)[nH]c(C4CCCN(C(=O)C5CCCCC5)C4)nc32)c1 (stereo unspecified),"inconclusive: 89.1 µM [inhibitor, single point]"
12,O=C(c1ccncc1)N1CCN(C2CCCCC2)CC1,active: 50.1 µM
13,Cc1ccc2cc3c(nc2c1)N(Cc1ccco1)CC3,inactive
14,O=S(=O)(NCCN1CCCC1)c1ccc(C(F)(F)F)cc1,inactive
15,Cc1noc(C)c1C(=O)Nc1nc2ccc(F)cc2s1,inactive
16,Brc1ccccc1OCCCN1CCCCCC1,"inconclusive: 79.4 µM [inhibitor, single point]"
17,CN1CCN(C(=O)c2cccc(-c3cc(O)c4ncccc4c3)c2)CC1,active: 12.6 µM
18,N#Cc1nc(Cc2cccc3ccccc23)oc1NCc1ccc2c(c1)OCO2,"inconclusive: 11.2 µM [inhibitor, full curve]"
19,CN(CC(=O)Nc1cccc(F)c1)C(=O)c1cccc(S(=O)(=O)N2CCN(c3ccccc3)CC2)c1,"inconclusive: 70.8 µM [inhibitor, single point]"
20,Cc1cccc(NC(=S)N/N=C/c2cccn2Cc2ccc(F)cc2)c1,active: 8.91 µM
21,CCOc1ccc(C(=O)Nc2ccc(N3CCN(C)CC3)cc2)cc1[N+](=O)[O-],"inconclusive: 79.4 µM [inhibitor, single point]"
22,CC1CCCN(c2ncnc3c2nnn3C)C1 (stereo unspecified),inactive
23,Cc1c(Cc2ccc3c(c2)OCO3)sc(NC(=O)c2cccc3ccccc23)c1C(N)=O,"inconclusive: 70.8 µM [inhibitor, single point]"
24,O=C(Nc1ccc(C(F)(F)F)cc1)C1(c2cccs2)CCOCC1,inactive

row,SMILES,Potency
1,Cc1ccc(NCc2ccncc2)c(Br)c1,active: 22.4 µM
2,CN(C)S(=O)(=O)c1ccc(N2CCCC2)c(C(=O)Nc2ccccc2F)c1,inactive
3,Nc1nc(Nc2cccc(F)c2)nc(NCc2ccco2)c1[N+](=O)[O-],"inconclusive: 39.8 µM [inhibitor, partial curve]"
4,c1ccc(CCc2nn3c(Cn4nnc5ccccc54)nnc3s2)cc1,inactive
5,Cc1cc(/C=C2\SC(=Nc3ccccc3)NC2=O)c(C)n1-c1ccc(S(N)(=O)=O)cc1,"inconclusive: 89.1 µM [inhibitor, single point]"
6,CCOc1ccc(CNC(=O)c2ccc(Sc3ccc(C)cc3)c(N)c2)cc1OC,"inconclusive: 79.4 µM [inhibitor, partial curve]"
7,CC(=C\c1ccco1)/C=C(\C#N)C(=O)NCCc1c[nH]c2ccccc12,"inconclusive: 35.5 µM [inhibitor, partial curve]"
8,O=C(O)CN1C(=O)/C(=C\c2cccc(OCc3ccc(Cl)cc3Cl)c2)SC1=S,active: 79.4 µM
9,COc1ccccc1Nc1nc2nonc2[nH]c1=O,"inconclusive: 79.4 µM [inhibitor, single point]"
10,CCOC(=O)Cc1csc(NC(=S)NC(=O)c2ccc([N+](=O)[O-])cc2)n1,"inconclusive: 50.1 µM [inhibitor, partial curve]"
11,N#C/C(=N\O)c1nc(-c2ccccc2)cs1,"inconclusive: 70.8 µM [inhibitor, single point]"
12,COc1ccc(-c2oc3ncnc(NCCCO)c3c2-c2ccc(OC)cc2)cc1,"inconclusive: 56.2 µM [inhibitor, partial curve]"
13,Cc1ccc(Cl)c(OC(=O)c2ccc(N3CCOCC3)c([N+](=O)[O-])c2)c1,"inconclusive: 25.1 µM [inhibitor, full curve]"
14,CS(=O)(=O)c1ccccc1-c1nnc(NC(=O)c2ccc(S(=O)(=O)N3CCCC3)cc2)o1,"inconclusive: 89.1 µM [inhibitor, single point]"
15,Cc1ccc(C(C#N)c2ccc3c(C(F)(F)F)cc(C(F)(F)F)nc3n2)cc1 (stereo unspecified),active: 8.91 µM
16,Cc1ccc([N+](=O)[O-])cc1S(=O)(=O)Nc1ccccn1,inactive
17,Cc1oc(-c2ccccc2)nc1Cn1c(=O)cc(-c2ccccc2)c2c(C)nn(C)c21,"inconclusive: 35.5 µM [inhibitor, full curve]"
18,COC(=O)c1ccc(Cn2c(C)cc(C)[n+]2C)o1,"inconclusive: 79.4 µM [inhibitor, single point]"
19,Cc1ccc(-n2c(SCC(=O)Nc3ccc4c5c(cccc35)CC4)nc(O)cc2=O)cc1,inactive
20,CC(=O)NC(CCS(C)(=O)=O)C(=O)Nc1nccs1 (stereo unspecified),inactive
21,C=CCn1c(-c2ccc(OC)cc2)csc1=Nc1c(C)n(C)n(-c2ccccc2)c1=O,"inconclusive: 22.4 µM [inhibitor, single point]"
22,COc1ccc(C(=O)N2CCN(CCc3ccccn3)CC2)cc1,"inconclusive: 89.1 µM [inhibitor, single point]"
23,Cc1ccc(C(=O)NCC(=O)OCc2c(F)cccc2Cl)cc1,inactive
